# Measurements published in the supplement of paper PMC8728848.
# This is one part of the list.
# Legend:
# Assay in all cases: glycan array binding signal (z-score within array); higher = stronger binding
# Settings in all cases: glycan notation: IUPAC condensed, linker removed
# [1] = target: GlcNAc(b1-3)Gal(b1-4)Glc
# In short: (§1)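 The binding signal is a Z-score computed within each array. Data were drawn from 3228 arrays in the Consortium for Functional Glycomics database, restricted to those with a known protein sequence. Scores were averaged over arrays of the same protein sequence at different concentrations or buffers, and over linkers, and negative values can be taken as non-binding.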
# [2] = target: GlcNAc(b1-3)Gal(b1-4)GlcNAc
# In short: as §1
# [3] = target: GlcNAc(b1-3)Gal(b1-4)GlcNAc(b1-2)Man(a1-3)[GlcNAc(b1-3)Gal(b1-4)GlcNAc(b1-2)Man(a1-6)]Man(b1-4)GlcNAc(b1-4)GlcNAc
# In short: as §1
# [4] = target: GlcNAc(b1-3)Gal(b1-4)GlcNAc(b1-2)Man(a1-3)[GlcNAc(b1-3)Gal(b1-4)GlcNAc(b1-2)Man(a1-6)]Man(b1-4)GlcNAc(b1-4)[Fuc(a1-6)]GlcNAc
# In short: as §1
# [5] = target: GlcNAc(b1-3)Gal(b1-4)GlcNAc(b1-2)[GlcNAc(b1-3)Gal(b1-4)GlcNAc(b1-6)]Man(a1-6)[GlcNAc(b1-3)Gal(b1-4)GlcNAc(b1-2)Man(a1-3)]Man(b1-4)GlcNAc(b1-4)GlcNAc
# In short: as §1
# [6] = target: GlcNAc(b1-3)Gal(b1-4)GlcNAc(b1-3)Gal(b1-4)GlcNAc
# In short: as §1
# [7] = target: GlcNAc(b1-3)Gal(b1-4)GlcNAc(b1-3)Gal(b1-4)GlcNAc(b1-2)Man(a1-3)[GlcNAc(b1-3)Gal(b1-4)GlcNAc(b1-3)Gal(b1-4)GlcNAc(b1-2)Man(a1-6)]Man(b1-4)GlcNAc(b1-4)GlcNAc
# In short: as §1
# [8] = target: GlcNAc(b1-3)Gal(b1-4)GlcNAc(b1-3)Gal(b1-4)GlcNAc(b1-2)Man(a1-3)[GlcNAc(b1-3)Gal(b1-4)GlcNAc(b1-3)Gal(b1-4)GlcNAc(b1-2)Man(a1-6)]Man(b1-4)GlcNAc(b1-4)[Fuc(a1-6)]GlcNAc
# In short: as §1
# [9] = target: GlcNAc(b1-3)Gal(b1-4)GlcNAc(b1-3)Gal(b1-4)GlcNAc(b1-2)[GlcNAc(b1-3)Gal(b1-4)GlcNAc(b1-3)Gal(b1-4)GlcNAc(b1-6)]Man(a1-6)[GlcNAc(b1-3)Gal(b1-4)GlcNAc(b1-3)Gal(b1-4)GlcNAc(b1-2)Man(a1-3)]Man(b1-4)GlcNAc(b1-4)[Fuc(a1-6)]GlcNAc
# In short: as §1
# [10] = target: GlcNAc(b1-3)Gal(b1-4)GlcNAc(b1-3)Gal(b1-4)GlcNAc(b1-3)Gal(b1-4)GlcNAc(b1-2)Man(a1-3)[GlcNAc(b1-3)Gal(b1-4)GlcNAc(b1-3)Gal(b1-4)GlcNAc(b1-3)Gal(b1-4)GlcNAc(b1-2)Man(a1-6)]Man(b1-4)GlcNAc(b1-4)GlcNAc
# In short: as §1
# [11] = target: GlcNAc(b1-3)Gal(b1-4)GlcNAc(b1-3)Gal(b1-4)GlcNAc(b1-3)Gal(b1-4)GlcNAc(b1-2)Man(a1-3)[GlcNAc(b1-3)Gal(b1-4)GlcNAc(b1-3)Gal(b1-4)GlcNAc(b1-3)Gal(b1-4)GlcNAc(b1-2)Man(a1-6)]Man(b1-4)GlcNAc(b1-4)[Fuc(a1-6)]GlcNAc
# In short: as §1
# [12] = target: GlcNAc(b1-3)Gal(b1-4)GlcNAc(b1-3)Gal(b1-4)GlcNAc(b1-3)Gal(b1-4)GlcNAc(b1-2)[GlcNAc(b1-3)Gal(b1-4)GlcNAc(b1-3)Gal(b1-4)GlcNAc(b1-3)Gal(b1-4)GlcNAc(b1-6)]Man(a1-6)[GlcNAc(b1-3)Gal(b1-4)GlcNAc(b1-3)Gal(b1-4)GlcNAc(b1-3)Gal(b1-4)GlcNAc(b1-2)Man(a1-3)]Man(b1-4)GlcNAc(b1-4)[Fuc(a1-6)]GlcNAc
# In short: as §1
# [13] = target: GlcNAc(b1-3)Gal(b1-4)GlcNAc(b1-3)Gal(b1-4)GlcNAc(b1-3)Gal(b1-4)GlcNAc(b1-3)Gal(b1-4)GlcNAc(b1-2)Man(a1-3)[GlcNAc(b1-3)Gal(b1-4)GlcNAc(b1-3)Gal(b1-4)GlcNAc(b1-3)Gal(b1-4)GlcNAc(b1-3)Gal(b1-4)GlcNAc(b1-2)Man(a1-6)]Man(b1-4)GlcNAc(b1-4)GlcNAc
# In short: as §1
# [14] = target: GlcNAc(b1-3)Gal(b1-4)GlcNAc(b1-3)Gal(b1-4)GlcNAc(b1-3)Gal(b1-4)GlcNAc(b1-3)Gal(b1-4)GlcNAc(b1-2)Man(a1-3)[GlcNAc(b1-3)Gal(b1-4)GlcNAc(b1-3)Gal(b1-4)GlcNAc(b1-3)Gal(b1-4)GlcNAc(b1-3)Gal(b1-4)GlcNAc(b1-2)Man(a1-6)]Man(b1-4)GlcNAc(b1-4)[Fuc(a1-6)]GlcNAc
# In short: as §1
# [15] = target: GlcNAc(b1-3)Gal(b1-4)GlcNAc(b1-3)Gal(b1-4)GlcNAc(b1-3)Gal(b1-4)GlcNAc(b1-3)Gal(b1-4)GlcNAc(b1-2)[GlcNAc(b1-3)Gal(b1-4)GlcNAc(b1-3)Gal(b1-4)GlcNAc(b1-3)Gal(b1-4)GlcNAc(b1-3)Gal(b1-4)GlcNAc(b1-6)]Man(a1-6)[GlcNAc(b1-3)Gal(b1-4)GlcNAc(b1-3)Gal(b1-4)GlcNAc(b1-3)Gal(b1-4)GlcNAc(b1-3)Gal(b1-4)GlcNAc(b1-2)Man(a1-3)]Man(b1-4)GlcNAc(b1-4)[Fuc(a1-6)]GlcNAc
# In short: as §1
# [16] = target: GlcNAc(b1-3)Gal(b1-4)GlcNAc(b1-3)Gal(b1-4)GlcNAc(b1-3)GalNAc
# In short: as §1
# [17] = target: GlcNAc(b1-3)Gal(b1-4)GlcNAc(b1-3)GalNAc
# In short: as §1
# [18] = target: GlcNAc(b1-3)Gal(b1-4)GlcNAc(b1-3)[GlcNAc(b1-3)Gal(b1-4)GlcNAc(b1-3)]GalNAc
# In short: as §1
# [19] = target: GlcNAc(b1-3)Gal(b1-4)GlcNAc(b1-6)[Gal(b1-3)]GalNAc
# In short: as §1
# [20] = target: GlcNAc(b1-3)Gal(b1-4)GlcNAc(b1-6)[GlcNAc(b1-3)Gal(b1-3)]GalNAc
# In short: as §1
# [21] = target: GlcNAc(b1-3)Gal(b1-4)GlcNAc(b1-6)[GlcNAc(b1-3)]Gal(b1-4)GlcNAc
# In short: as §1
# [22] = target: GlcNAc(b1-3)GalNAc
# In short: as §1
# [23] = target: GlcNAc(b1-3)Man
# In short: as §1
# [24] = target: GlcNAc(b1-3)[GlcNAc(b1-4)][GlcNAc(b1-6)]GlcNAc
# In short: as §1
# [25] = target: GlcNAc(b1-3)[GlcNAc(b1-6)]Gal(b1-4)GlcNAc
# In short: as §1
# [26] = target: GlcNAc(b1-3)[GlcNAc(b1-6)]GalNAc
# In short: as §1
# [27] = target: GlcNAc(b1-3)[GlcNAc(b1-6)]GlcNAc
# In short: as §1
# [28] = target: GlcNAc(b1-3)[GlcNAc(b1-6)]GlcNAc(b1-4)GlcNAc
# In short: as §1
# [29] = target: GlcNAc(b1-4)Gal(b1-4)GlcNAc
# In short: as §1
# [30] = target: GlcNAc(b1-4)GlcNAc
# In short: as §1
# [31] = target: GlcNAc(b1-4)GlcNAc(b1-4)GlcNAc
# In short: as §1
# [32] = target: GlcNAc(b1-4)GlcNAc(b1-4)GlcNAc(b1-4)GlcNAc(b1-4)GlcNAc
# In short: as §1
# [33] = target: GlcNAc(b1-4)GlcNAc(b1-4)GlcNAc(b1-4)GlcNAc(b1-4)GlcNAc(b1-4)GlcNAc
# In short: as §1
# [34] = target: GlcNAc(b1-4)[GlcNAc(b1-6)]GalNAc
# In short: as §1
# [35] = target: GlcNAc(b1-6)Gal(b1-4)GlcNAc
# In short: as §1
# [36] = target: GlcNAc(b1-6)GalNAc
# In short: as §1
# [37] = target: GlcNAc3Prop(b1-4)GlcNAc
# In short: as §1
# [38] = target: GlcNAc6S(b1-3)Gal(b1-4)GlcNAc
# In short: as §1
# [39] = target: Kdn(a2-3)Gal(b1-3)GalNAc
# In short: as §1
# [40] = target: Kdn(a2-3)Gal(b1-3)GlcNAc
# In short: as §1
# [41] = target: Kdn(a2-3)Gal(b1-4)Glc
# In short: as §1
# [42] = target: Kdn(a2-3)Gal(b1-4)GlcNAc
# In short: as §1
# [43] = target: Kdn(a2-3)Gal(b1-4)[Fuc(a1-3)]GlcNAc
# In short: as §1
# [44] = target: Kdn(a2-6)Gal(b1-4)GlcNAc
# In short: as §1
# [45] = target: Man(a1-2)Man(a1-2)Man(a1-3)Man
# In short: as §1
binder,measurement,setting,value
EEA (Euonymus europaeus) (protein) MASTIIATGPTYRVYCRAAPNYNMIVGKGVAFLAPIDETNELQYWYKDDTYSYIKDEAGLPAFSLVNKATGLTLKHSNHHPVPVKLVTYNPNVVDESVLWSQADDRGDGYSAIRSLTNPASHLEAAPLNDWSYNGAIIMGGVWIDAYNQQWKIEPHTG,glycan array binding signal (z-score),[1],-0.228
same,glycan array binding signal (z-score),[2],-0.16
same,glycan array binding signal (z-score),[3],-0.158
same,glycan array binding signal (z-score),[4],-0.195
same,glycan array binding signal (z-score),[5],0.038
same,glycan array binding signal (z-score),[6],-0.226
same,glycan array binding signal (z-score),[7],0.225
same,glycan array binding signal (z-score),[8],-0.109
same,glycan array binding signal (z-score),[9],0.07
same,glycan array binding signal (z-score),[10],-0.034
same,glycan array binding signal (z-score),[11],-0.059
same,glycan array binding signal (z-score),[12],0.131
same,glycan array binding signal (z-score),[13],-0.156
same,glycan array binding signal (z-score),[14],-0.221
same,glycan array binding signal (z-score),[15],-0.012
same,glycan array binding signal (z-score),[16],-0.135
same,glycan array binding signal (z-score),[17],-0.156
same,glycan array binding signal (z-score),[18],-0.132
same,glycan array binding signal (z-score),[19],-0.17
same,glycan array binding signal (z-score),[20],-0.169
same,glycan array binding signal (z-score),[21],-0.133
same,glycan array binding signal (z-score),[22],-0.237
same,glycan array binding signal (z-score),[23],-0.219
same,glycan array binding signal (z-score),[24],-0.125
same,glycan array binding signal (z-score),[25],-0.147
same,glycan array binding signal (z-score),[26],-0.152
same,glycan array binding signal (z-score),[27],-0.173
same,glycan array binding signal (z-score),[28],-0.286
same,glycan array binding signal (z-score),[29],-0.237
same,glycan array binding signal (z-score),[30],-0.172
same,glycan array binding signal (z-score),[31],-0.067
same,glycan array binding signal (z-score),[32],-0.058
same,glycan array binding signal (z-score),[33],-0.03
same,glycan array binding signal (z-score),[34],-0.204
same,glycan array binding signal (z-score),[35],0.013
same,glycan array binding signal (z-score),[36],-0.056
same,glycan array binding signal (z-score),[37],-0.254
same,glycan array binding signal (z-score),[38],-0.236
same,glycan array binding signal (z-score),[39],-0.093
same,glycan array binding signal (z-score),[40],-0.21
same,glycan array binding signal (z-score),[41],-0.177
same,glycan array binding signal (z-score),[42],-0.196
same,glycan array binding signal (z-score),[43],-0.179
same,glycan array binding signal (z-score),[44],-0.179
same,glycan array binding signal (z-score),[45],-0.22
